Experimental data: paper PMC4336329 (PLoS ONE, 2015)
Hit rate of the full screen: of about 310,000 compounds, about 2,200 (0.71%) showed an effect of 50% or more. The effect is printed as a negative number. Some of the results follow.

The compounds below were run against human ether-à-go-go-related gene (hERG) potassium channel (human, UniProt Q12809) (assay: primary screen, population patch clamp on CHO cells stably expressing hERG).
Chain of human ether-à-go-go-related gene (hERG) potassium channel (Q12809 whole entry, looked up): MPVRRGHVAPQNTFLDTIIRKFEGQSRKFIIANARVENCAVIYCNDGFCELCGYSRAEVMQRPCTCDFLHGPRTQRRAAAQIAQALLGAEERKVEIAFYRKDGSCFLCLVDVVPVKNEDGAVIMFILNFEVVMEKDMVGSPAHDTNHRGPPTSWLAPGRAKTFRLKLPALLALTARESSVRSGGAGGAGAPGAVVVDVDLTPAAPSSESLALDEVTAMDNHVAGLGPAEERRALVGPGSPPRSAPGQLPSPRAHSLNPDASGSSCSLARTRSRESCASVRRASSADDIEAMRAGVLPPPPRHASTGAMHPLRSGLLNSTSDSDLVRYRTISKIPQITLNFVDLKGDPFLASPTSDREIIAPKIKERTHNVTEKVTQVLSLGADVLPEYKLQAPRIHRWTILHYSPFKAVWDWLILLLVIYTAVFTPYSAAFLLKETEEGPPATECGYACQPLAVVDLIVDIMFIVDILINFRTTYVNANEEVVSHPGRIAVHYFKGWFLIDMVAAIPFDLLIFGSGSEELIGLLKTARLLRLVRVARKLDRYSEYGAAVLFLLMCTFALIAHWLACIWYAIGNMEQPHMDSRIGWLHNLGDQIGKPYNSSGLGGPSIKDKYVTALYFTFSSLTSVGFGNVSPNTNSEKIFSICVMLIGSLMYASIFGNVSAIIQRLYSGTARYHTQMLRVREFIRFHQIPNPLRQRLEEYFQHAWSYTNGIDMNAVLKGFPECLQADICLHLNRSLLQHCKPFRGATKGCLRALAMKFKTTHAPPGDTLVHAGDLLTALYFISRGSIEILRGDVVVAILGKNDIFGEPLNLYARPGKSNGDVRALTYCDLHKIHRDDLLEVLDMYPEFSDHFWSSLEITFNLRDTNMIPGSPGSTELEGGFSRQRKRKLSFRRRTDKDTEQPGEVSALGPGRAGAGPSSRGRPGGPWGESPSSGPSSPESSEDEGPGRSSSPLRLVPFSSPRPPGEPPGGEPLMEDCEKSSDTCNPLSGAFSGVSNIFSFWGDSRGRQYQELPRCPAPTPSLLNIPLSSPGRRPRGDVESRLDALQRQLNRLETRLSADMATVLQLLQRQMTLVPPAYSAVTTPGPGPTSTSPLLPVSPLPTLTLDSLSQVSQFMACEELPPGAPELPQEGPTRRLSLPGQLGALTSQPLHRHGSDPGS

Row | SMILES | hERG current change (%, negative = inhibition) at 1uM
1 | Clc1ccccc1CSc1nncn1-c1cccnc1 | 9.86%
2 | CC1CCN(S(=O)(=O)c2cccc(C(=O)NCc3ccco3)c2)CC1 | 0.766%
3 | Cn1cccc1CC(=O)N/N=C/C=C/c1ccccc1 | 9.48%
4 | Cc1c(C(=O)NCC2CCCO2)oc2ccc(S(=O)(=O)N3CC(C)CC(C)C3)cc12 (stereo not shown) | 16.9%
5 | CC(Sc1ccccc1)C(=O)N1CCN(S(=O)(=O)c2ccc(Cl)cc2)CC1 (stereo not shown) | 5.39%
6 | CC(C)(C)c1nnc(NC(=S)Nc2ccccc2)s1 | 11.9%
7 | Cc1noc(C)c1COC(=O)C1COc2ccccc2O1 (stereo not shown) | 1.85%
8 | C/C=C(\C)CN1CCCC(N(C)CCc2ccc(OC)c(OC)c2)C1 (stereo not shown) | 8.4%
9 | CCC1CCCCN1CCCNC(=O)CN1C(=O)CSc2ccc(S(=O)(=O)N3CCOCC3)cc21 (stereo not shown) | 14.2%
10 | COc1ccc(C(C)C)cc1S(=O)(=O)N1CC(C)OC(C)C1 (stereo not shown) | 10.7%
11 | O=C(N/N=C/c1ccc(Br)o1)c1cc([N+](=O)[O-])cc([N+](=O)[O-])c1 | 8.21%
12 | Cc1cc2nc(-c3cccc(NC(=O)c4ccc(Br)o4)c3)oc2cc1C | 9.9%
13 | CCN(CC)CCCNc1cc(C(F)(F)F)c(C#N)c2nc3ccccc3n12 | -3.04%
14 | O=C(O)CSCC(=O)Nc1ccc(C(=O)O)cc1 | 14.4%
15 | C=CCn1c(SCC(=O)Nc2ccc3c(c2)OCCO3)nnc1-c1ccco1 | -23.5%
16 | CC1CCN(c2cc(Br)c([N+](=O)[O-])cc2F)CC1 | 7.48%
17 | O=C(CC(c1ccccc1)c1ccccc1O)N1CCCCC1 (stereo not shown) | 12.6%
18 | CCOC(=O)CNc1nc(Cl)nc(Nc2ccc(C)cc2)n1 | 9.68%
19 | CCc1sc(C(=O)Nc2ccc(F)cc2C)cc1C | 15.8%
20 | CCn1c(C)c(C(=O)c2ccccc2)c(C#N)c1C(=O)O | 6.11%
21 | COc1cc(/C=C2\SC(=S)N(N(C)c3ccccc3)C2=O)ccc1O | 1.71%
22 | COc1ccc(/C=C(\NC(=O)c2ccccc2)C(=O)NCCC(=O)O)cc1 | 5.89%
23 | C#C[C@]1(O)CC[C@H]2[C@@H]3CCC4=CC(=O)CC[C@@H]4[C@H]3CC[C@@]21CC | 15%
24 | O=C(c1cccc(N2C(=O)C3C4C=CC(C4)C3C2=O)c1)N1CCN(c2ccc(F)cc2)CC1 (stereo not shown) | 3.02%
25 | COc1ccc(N2CCN(Cc3ccc(Br)s3)CC2)cc1 | -3.06%
